Cell viability data for 22 sequences are collected here from the supplement of paper PMC6206098.

± gives the uncertainty stated by the source. The sequences are guide strands of siRNAs; only the seed at positions 2 to 7 varies.

The subject of series [1] is 3LL. In words: cell viability relative to siNT1 control; higher = less toxic. Conditions: concentration: 10 nM; 96 h; Mus musculus.
Series [2] relates to H460. As to the kind of experiment: cell viability relative to lipid-only control; HeyA8 human ovarian and H460 human lung cancer; M565 mouse liver and 3LL mouse lung cancer; siNT1 is a non-toxic control siRNA; higher = less toxic. Conditions: concentration: 10 nM; 96 h; Homo sapiens. Here is the method: (§1)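 Arrayed screen of 4096 siRNA duplexes, each carrying one of all possible 6mer seeds at guide-strand positions 2-7 in a fixed neutral 19mer scaffold (constant flanks: U at position 1, then ACAUGUAAACCA, plus a 3' AA overhang). The passenger strand is 2'-O-methylated at positions 1-2 so only the guide strand loads into RISC. Duplexes were reverse-transfected at 10 nM with RNAiMAX in triplicate in 384-well plates; viability was read by CellTiter-Glo ATP content 96 h after transfection. Values are % viability normalised to lipid-only wells (HeyA8, H460, M565) or to siNT1 (3LL).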

Series [3] concerns HeyA8. The series is described as above. Conditions: concentration: 10 nM; 96 h; Homo sapiens. How it is done:
as §1

Series [4] relates to M565. The description is as above. Conditions: concentration: 10 nM; 96 h; Mus musculus. Here is the method:
as §1
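For cell viability relative to siNT1 control in this document: Luminescence-based viability of cells reverse transfected in 384-well plates with lipid-complexed siRNAs built on a non-toxic 19mer backbone whose passenger strand carries 2′-O-methyl groups at positions 1 and 2, triplicates.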

As to UUGUUCAACAUGUAAACCAAA, the cell viability in series [1] is 91.4 ± 8.5%; in series [2], 72.6 ± 17%; in series [3] it was 79.1 ± 7.9%; in series [4], 35.7 ± 3.4%.
In the same order, the values of UAACGGCACAUGUAAACCAAA are 41.6 ± 5.3%, 42.6 ± 9.3%, 32.7 ± 1.5% and 50.9 ± 9.4%.
For UGUAUCGACAUGUAAACCAAA, the cell viability in series [1] came out at 88.1 ± 5%; in series [2], 82.8 ± 13%; in series [3] it was 82.7 ± 9.5%; in series [4], 90.7 ± 5%.
Regarding UUUAACGACAUGUAAACCAAA, the cell viability in series [1] turned out to be 108 ± 12%; in series [2], 86.7 ± 7.4%; in series [3], 102 ± 7%; in series [4] it was 91.4 ± 12%.
Regarding UAGACCGACAUGUAAACCAAA, the cell viability in series [1] was 73.8 ± 6.1%; in series [2] it was 75.3 ± 15%; in series [3], 78.6 ± 2%; in series [4] it was 43.6 ± 4.1%.
As for UCGGCCUACAUGUAAACCAAA, the cell viability in series [1] is 47 ± 12%; in series [2], 53.5 ± 9.6%; in series [3], 47.8 ± 4.8%; in series [4], 22 ± 6.2%.
In the same order, the values of UUUUCAGACAUGUAAACCAAA are 97.1 ± 9.5%, 79.3 ± 18%, 86.8 ± 2.2% and 84.2 ± 5.4%.
For the sequence UGACUCCACAUGUAAACCAAA, the cell viability was determined as 2.51 ± 0.7% in series [1], 12.1 ± 1.1% in series [2], 19.9 ± 1.8% in series [3] and 4.4 ± 1.2% in series [4].
On the same counts, the results for UGUGAACACAUGUAAACCAAA are 69 ± 6.3%, 46.5 ± 3.4%, 46.5 ± 6.9% and 22.3 ± 1.9%.
In the same order, the values of UGACGCUACAUGUAAACCAAA are 78.3 ± 12%, 52.9 ± 11%, 95.2 ± 7.4% and 80 ± 24%.
Turning to UAAGGCGACAUGUAAACCAAA, the cell viability in series [1] was found to be 75.7 ± 8.9%; in series [2] it was 65.1 ± 6.3%; in series [3] it was 70.6 ± 1.5%; in series [4], 44.1 ± 11%.
In the same order, the values of UUCAAUGACAUGUAAACCAAA are 68.8 ± 18%, 76.5 ± 9.8%, 91.8 ± 7% and 93.3 ± 12%.
On the same counts, the results for UGAGCACACAUGUAAACCAAA are 9.99 ± 3.3%, 50.7 ± 3.1%, 69.2 ± 4.9% and 8.51 ± 1.2%.
In the same order, the values of UCAAGAGACAUGUAAACCAAA are 93.5 ± 18%, 72.6 ± 9.2%, 88 ± 5% and 57.3 ± 3.1%.
In the case of UUCCACCACAUGUAAACCAAA, the cell viability in series [1] was 38.4 ± 4.9%; in series [2] it was 22.6 ± 4.3%; in series [3] it was 49.8 ± 4.4%; in series [4], 22.8 ± 3.6%.
Turning to UCAUCCAACAUGUAAACCAAA, the cell viability came out at 79.9 ± 14% in series [1], 47.7 ± 8.9% in series [2], 26.1 ± 1.4% in series [3] and 57.6 ± 8.1% in series [4].
In the same order, the values of UCAGUGAACAUGUAAACCAAA are 96.1 ± 15%, 56.7 ± 12%, 69.2 ± 7.6% and 68.9 ± 3.3%.
In the same order, the values of UAUUGCGACAUGUAAACCAAA are 55.3 ± 9.9%, 77.9 ± 16%, 91.5 ± 9.9% and 85.2 ± 1.4%.
In the same order, the values of UUCAGAUACAUGUAAACCAAA are 73.9 ± 17%, 71.5 ± 9.2%, 55.3 ± 10% and 31.7 ± 9.3%.
As for UGUGCUGACAUGUAAACCAAA, the cell viability in series [1] came out at 74.6 ± 1.3%; in series [2], 59.8 ± 12%; in series [3], 21 ± 24%; in series [4] it was 89.3 ± 16%.
In the same order, the values of UCGUGCGACAUGUAAACCAAA are 51.7 ± 10%, 83.3 ± 19%, 84.5 ± 5.3% and 41.1 ± 2.3%.
On the same counts, the results for UGCUAUAACAUGUAAACCAAA are 83.3 ± 10%, 61.6 ± 7.1%, 68.9 ± 11% and 72.2 ± 1.3%.
